Results as given in the supplement of paper PMC8728848.
The list shows a part of the results.

Tests used:
Test in all cases: glycan array binding signal (z-score within array); higher = stronger binding
Details in all cases: glycan notation: IUPAC condensed, linker removed
[1] = target: Neu5Ac(a2-3)Gal(b1-4)GlcNAc(b1-3)[Neu5Ac(a2-3)Gal(b1-4)GlcNAc(b1-6)]GalNAc
Procedure, shortened: (§1)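 From the Consortium for Functional Glycomics database, 3228 arrays were curated, keeping only those whose protein sequence was available. Binding is given as a within-array Z-score averaged across arrays sharing a protein sequence and across linkers. Negative Z-scores can be read as non-binding.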

[2] = target: Neu5Ac(a2-3)Gal(b1-4)GlcNAc(b1-6)GalNAc
Procedure, shortened: as §1

[3] = target: Neu5Ac(a2-3)Gal(b1-4)GlcNAc(b1-6)[Gal(b1-3)]GalNAc
Procedure, shortened: as §1

[4] = target: Neu5Ac(a2-3)Gal(b1-4)GlcNAc(b1-6)[Neu5Ac(a2-3)Gal(b1-3)]GalNAc
Procedure, shortened: as §1

[5] = target: Neu5Ac(a2-3)Gal(b1-4)GlcNAc6S
Procedure, shortened: as §1

[6] = target: Neu5Ac(a2-3)Gal(b1-4)[Fuc(a1-3)]GlcNAc
Procedure, shortened: as §1

[7] = target: Neu5Ac(a2-3)Gal(b1-4)[Fuc(a1-3)]GlcNAc(b1-2)Man
Procedure, shortened: as §1

[8] = target: Neu5Ac(a2-3)Gal(b1-4)[Fuc(a1-3)]GlcNAc(b1-3)Gal
Procedure, shortened: as §1

[9] = target: Neu5Ac(a2-3)Gal(b1-4)[Fuc(a1-3)]GlcNAc(b1-3)Gal(b1-4)GlcNAc
Procedure, shortened: as §1

[10] = target: Neu5Ac(a2-3)Gal(b1-4)[Fuc(a1-3)]GlcNAc(b1-3)Gal(b1-4)[Fuc(a1-3)]GlcNAc(b1-3)Gal(b1-4)[Fuc(a1-3)]GlcNAc
Procedure, shortened: as §1

[11] = target: Neu5Ac(a2-3)Gal(b1-4)[Fuc(a1-3)]GlcNAc(b1-3)GalNAc
Procedure, shortened: as §1

[12] = target: Neu5Ac(a2-3)Gal(b1-4)[Fuc(a1-3)]GlcNAc(b1-6)[Gal(b1-3)]GalNAc
Procedure, shortened: as §1

[13] = target: Neu5Ac(a2-3)Gal(b1-4)[Fuc(a1-3)]GlcNAc(b1-6)[Neu5Ac(a2-3)Gal(b1-3)]GalNAc
Procedure, shortened: as §1

[14] = target: Neu5Ac(a2-3)Gal(b1-4)[Fuc(a1-3)]GlcNAc6S
Procedure, shortened: as §1

[15] = target: Neu5Ac(a2-3)Gal6S(b1-4)GlcNAc
Procedure, shortened: as §1

[16] = target: Neu5Ac(a2-3)Gal6S(b1-4)[Fuc(a1-3)]GlcNAc
Procedure, shortened: as §1

Neu5Ac(a2-3)GalNAc = target: Neu5Ac(a2-3)GalNAc
Procedure, shortened: as §1

[17] = target: Neu5Ac(a2-3)GalNAc(b1-4)GlcNAc
Procedure, shortened: as §1

[18] = target: Neu5Ac(a2-3)[GalNAc(b1-4)]Gal(b1-4)Glc
Procedure, shortened: as §1

[19] = target: Neu5Ac(a2-3)[GalNAc(b1-4)]Gal(b1-4)GlcNAc
Procedure, shortened: as §1

[20] = target: Neu5Ac(a2-3)[GalNAc(b1-4)]Gal(b1-4)GlcNAc(b1-3)GalNAc
Procedure, shortened: as §1

[21] = target: Neu5Ac(a2-3)[Neu5Ac(a2-6)]GalNAc
Procedure, shortened: as §1

Neu5Ac(a2-6)Gal = target: Neu5Ac(a2-6)Gal
Procedure, shortened: as §1

[22] = target: Neu5Ac(a2-6)Gal(b1-3)GlcNAc(b1-3)[Gal(b1-4)GlcNAc(b1-6)]Gal(b1-4)Glc
Procedure, shortened: as §1

Neu5Ac(a2-6)Gal(b1-4)Glc = target: Neu5Ac(a2-6)Gal(b1-4)Glc
Procedure, shortened: as §1

[23] = target: Neu5Ac(a2-6)Gal(b1-4)GlcNAc
Procedure, shortened: as §1

[24] = target: Neu5Ac(a2-6)Gal(b1-4)GlcNAc(b1-2)Man
Procedure, shortened: as §1

[25] = target: Neu5Ac(a2-6)Gal(b1-4)GlcNAc(b1-2)Man(a1-3)Man(b1-4)GlcNAc(b1-4)GlcNAc
Procedure, shortened: as §1

[26] = target: Neu5Ac(a2-6)Gal(b1-4)GlcNAc(b1-2)Man(a1-3)[Gal(b1-4)GlcNAc(b1-2)Man(a1-6)]Man(b1-4)GlcNAc(b1-4)GlcNAc
Procedure, shortened: as §1

[27] = target: Neu5Ac(a2-6)Gal(b1-4)GlcNAc(b1-2)Man(a1-3)[GlcNAc(b1-2)Man(a1-6)]Man(b1-4)GlcNAc(b1-4)GlcNAc
Procedure, shortened: as §1

[28] = target: Neu5Ac(a2-6)Gal(b1-4)GlcNAc(b1-2)Man(a1-3)[GlcNAc(b1-4)][Neu5Ac(a2-6)Gal(b1-4)GlcNAc(b1-2)Man(a1-6)]Man(b1-4)GlcNAc(b1-4)GlcNAc
Procedure, shortened: as §1

[29] = target: Neu5Ac(a2-6)Gal(b1-4)GlcNAc(b1-2)Man(a1-3)[Man(a1-6)]Man(b1-4)GlcNAc(b1-4)GlcNAc
Procedure, shortened: as §1

[30] = target: Neu5Ac(a2-6)Gal(b1-4)GlcNAc(b1-2)Man(a1-3)[Neu5Ac(a2-3)Gal(b1-4)GlcNAc(b1-2)Man(a1-6)]Man(b1-4)GlcNAc(b1-4)GlcNAc
Procedure, shortened: as §1

[31] = target: Neu5Ac(a2-6)Gal(b1-4)GlcNAc(b1-2)Man(a1-3)[Neu5Ac(a2-6)Gal(b1-4)GlcNAc(b1-2)Man(a1-6)]Man(b1-4)GlcNAc(b1-4)GlcNAc
Procedure, shortened: as §1

[32] = target: Neu5Ac(a2-6)Gal(b1-4)GlcNAc(b1-2)Man(a1-3)[Neu5Ac(a2-6)Gal(b1-4)GlcNAc(b1-2)Man(a1-6)]Man(b1-4)GlcNAc(b1-4)[Fuc(a1-6)]GlcNAc
Procedure, shortened: as §1

[33] = target: Neu5Ac(a2-6)Gal(b1-4)GlcNAc(b1-2)Man(a1-6)Man(b1-4)GlcNAc(b1-4)GlcNAc
Procedure, shortened: as §1

[34] = target: Neu5Ac(a2-6)Gal(b1-4)GlcNAc(b1-2)Man(a1-6)[Gal(b1-4)GlcNAc(b1-2)Man(a1-3)]Man(b1-4)GlcNAc(b1-4)GlcNAc
Procedure, shortened: as §1

[35] = target: Neu5Ac(a2-6)Gal(b1-4)GlcNAc(b1-2)Man(a1-6)[GlcNAc(b1-2)Man(a1-3)]Man(b1-4)GlcNAc(b1-4)GlcNAc
Procedure, shortened: as §1

[36] = target: Neu5Ac(a2-6)Gal(b1-4)GlcNAc(b1-2)Man(a1-6)[Man(a1-3)]Man(b1-4)GlcNAc(b1-4)GlcNAc
Procedure, shortened: as §1

[37] = target: Neu5Ac(a2-6)Gal(b1-4)GlcNAc(b1-2)[Neu5Ac(a2-6)Gal(b1-4)GlcNAc(b1-4)]Man(a1-3)[GlcNAc(b1-4)][Neu5Ac(a2-6)Gal(b1-4)GlcNAc(b1-2)[Neu5Ac(a2-6)Gal(b1-4)GlcNAc(b1-6)]Man(a1-6)]Man(b1-4)GlcNAc(b1-4)GlcNAc
Procedure, shortened: as §1

[38] = target: Neu5Ac(a2-6)Gal(b1-4)GlcNAc(b1-2)[Neu5Ac(a2-6)Gal(b1-4)GlcNAc(b1-4)]Man(a1-3)[GlcNAc(b1-4)][Neu5Ac(a2-6)Gal(b1-4)GlcNAc(b1-4)Man(a1-6)]Man(b1-4)GlcNAc(b1-4)GlcNAc
Procedure, shortened: as §1

[39] = target: Neu5Ac(a2-6)Gal(b1-4)GlcNAc(b1-2)[Neu5Ac(a2-6)Gal(b1-4)GlcNAc(b1-6)]Man(a1-6)[Neu5Ac(a2-6)Gal(b1-4)GlcNAc(b1-2)Man(a1-3)][GlcNAc(b1-4)]Man(b1-4)GlcNAc(b1-4)GlcNAc
Procedure, shortened: as §1

[40] = target: Neu5Ac(a2-6)Gal(b1-4)GlcNAc(b1-3)Gal(b1-3)GlcNAc
Procedure, shortened: as §1

[41] = target: Neu5Ac(a2-6)Gal(b1-4)GlcNAc(b1-3)Gal(b1-4)GlcNAc
Procedure, shortened: as §1

[42] = target: Neu5Ac(a2-6)Gal(b1-4)GlcNAc(b1-3)Gal(b1-4)GlcNAc(b1-2)Man(a1-3)[Neu5Ac(a2-6)Gal(b1-4)GlcNAc(b1-3)Gal(b1-4)GlcNAc(b1-2)Man(a1-6)]GalNAc
Procedure, shortened: as §1

[43] = target: Neu5Ac(a2-6)Gal(b1-4)GlcNAc(b1-3)Gal(b1-4)GlcNAc(b1-3)Gal(b1-4)GlcNAc
Procedure, shortened: as §1

B1: CFEM-CGl (Candida glabrata), Q6FRS0 (protein)
chain: VLATPPACLLACVAQVSKQSSQCHTLNQVGCFCENENTAIKNCLDSICPNGNSDAAYTAFKNSCGDVGKAVASV
**Q.** For B1, which “glycan array binding signal (z-score)” value [1] is on record?
**A.** -0.174

**Q.** What about the “glycan array binding signal (z-score)” value [2] of the same binder?
**A.** -0.246

**Q.** What about the “glycan array binding signal (z-score)” value [3] of the same binder?
**A.** 0.326

**Q.** And the “glycan array binding signal (z-score)” value [4]?
**A.** -0.178

**Q.** And the “glycan array binding signal (z-score)” value [5]?
**A.** -0.111

**Q.** And the “glycan array binding signal (z-score)” value [6]?
**A.** -0.263

**Q.** And the “glycan array binding signal (z-score)” value [7]?
**A.** 0.312

**Q.** What about the “glycan array binding signal (z-score)” value [8] of the same binder?
**A.** -0.311

**Q.** And the “glycan array binding signal (z-score)” value [9]?
**A.** 0.563

**Q.** And the “glycan array binding signal (z-score)” value [10]?
**A.** -0.167

**Q.** And the “glycan array binding signal (z-score)” value [11]?
**A.** 3.44

**Q.** And the “glycan array binding signal (z-score)” value [12]?
**A.** 0.977

**Q.** And the “glycan array binding signal (z-score)” value [13]?
**A.** 0.076

**Q.** What about the “glycan array binding signal (z-score)” value [14] of the same binder?
**A.** -0.384

**Q.** What about the “glycan array binding signal (z-score)” value [15] of the same binder?
**A.** -0.211

**Q.** What about the “glycan array binding signal (z-score)” value [16] of the same binder?
**A.** -0.41

**Q.** And the “glycan array binding signal (z-score)” value (Neu5Ac(a2-3)GalNAc)?
**A.** -0.034

**Q.** What about the “glycan array binding signal (z-score)” value [17] of the same binder?
**A.** -0.449

**Q.** And the “glycan array binding signal (z-score)” value [18]?
**A.** -0.063

**Q.** What about the “glycan array binding signal (z-score)” value [19] of the same binder?
**A.** -0.342

**Q.** What about the “glycan array binding signal (z-score)” value [20] of the same binder?
**A.** -0.187

**Q.** What about the “glycan array binding signal (z-score)” value [21] of the same binder?
**A.** -0.425

**Q.** What about the “glycan array binding signal (z-score)” value (Neu5Ac(a2-6)Gal) of the same binder?
**A.** 0.051

**Q.** What about the “glycan array binding signal (z-score)” value [22] of the same binder?
**A.** -0.355

**Q.** What about the “glycan array binding signal (z-score)” value (Neu5Ac(a2-6)Gal(b1-4)Glc) of the same binder?
**A.** -0.129

**Q.** And the “glycan array binding signal (z-score)” value [23]?
**A.** -0.293

**Q.** And the “glycan array binding signal (z-score)” value [24]?
**A.** -0.367

**Q.** What about the “glycan array binding signal (z-score)” value [25] of the same binder?
**A.** -0.359

**Q.** What about the “glycan array binding signal (z-score)” value [26] of the same binder?
**A.** -0.369

**Q.** What about the “glycan array binding signal (z-score)” value [27] of the same binder?
**A.** -0.525

**Q.** What about the “glycan array binding signal (z-score)” value [28] of the same binder?
**A.** -0.428

**Q.** And the “glycan array binding signal (z-score)” value [29]?
**A.** -0.29

**Q.** What about the “glycan array binding signal (z-score)” value [30] of the same binder?
**A.** -0.45

**Q.** And the “glycan array binding signal (z-score)” value [31]?
**A.** -0.139

**Q.** What about the “glycan array binding signal (z-score)” value [32] of the same binder?
**A.** -0.178

**Q.** And the “glycan array binding signal (z-score)” value [33]?
**A.** -0.337

**Q.** And the “glycan array binding signal (z-score)” value [34]?
**A.** -0.409

**Q.** And the “glycan array binding signal (z-score)” value [35]?
**A.** -0.451

**Q.** And the “glycan array binding signal (z-score)” value [36]?
**A.** -0.332

**Q.** And the “glycan array binding signal (z-score)” value [37]?
**A.** -0.643

**Q.** And the “glycan array binding signal (z-score)” value [38]?
**A.** -0.393

**Q.** What about the “glycan array binding signal (z-score)” value [39] of the same binder?
**A.** -0.206

**Q.** What about the “glycan array binding signal (z-score)” value [40] of the same binder?
**A.** -0.342

**Q.** What about the “glycan array binding signal (z-score)” value [41] of the same binder?
**A.** -0.575

**Q.** What about the “glycan array binding signal (z-score)” value [42] of the same binder?
**A.** -0.069

**Q.** What about the “glycan array binding signal (z-score)” value [43] of the same binder?
**A.** 0.051
